Source: patent US20210347852A1 (Regeneron, published 2021)

Assays:
Human VEGF165 (REGN110) [1] = target: T1, Human VEGF165 (REGN110) (human, UniProt P15692-4 27-191); assay: cell-based or functional assay
T1 sequence (looked up): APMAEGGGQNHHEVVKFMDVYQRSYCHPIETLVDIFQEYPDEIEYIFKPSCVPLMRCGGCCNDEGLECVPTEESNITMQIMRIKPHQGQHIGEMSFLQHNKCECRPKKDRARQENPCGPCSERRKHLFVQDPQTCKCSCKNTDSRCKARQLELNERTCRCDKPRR

[2] = target: T2, Human VEGF121 (R&D SYSTEMS Cat #4644-VS) (human, UniProt P15692-9 27-147); assay: cell-based or functional assay
T2 sequence (looked up): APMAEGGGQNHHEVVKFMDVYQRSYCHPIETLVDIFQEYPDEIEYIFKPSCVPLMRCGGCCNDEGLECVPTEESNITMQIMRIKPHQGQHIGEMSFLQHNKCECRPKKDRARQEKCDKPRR

Human VEGF165 (REGN110) [3] = target: T1, Human VEGF165 (REGN110); assay: cell-based or functional assay; remark: listed apart in the source
[4] = target: T2, Human VEGF121 (R&D SYSTEMS Cat #4644-VS); assay: cell-based or functional assay; remark: listed apart in the source
Human VEGF165 (REGN110) [5] = target: T1, Human VEGF165 (REGN110); assay: SPR, 25C, trap captured by REGN18, hVEGF165 injected
Procedure: (§1) Equilibrium dissociation constants (KD values) for human VEGF₁₆₅ binding to various purified VEGF mini-trap constructs were determined using a real-time surface plasmon resonance biosensor using a Biacore 3000 instrument. All binding studies were performed in 10 mM HEPES, 150 mM NaCl, 3 mM EDTA, and 0.05% v/v Surfactant Tween-20; pH 7.4 (HBS-ET) running buffer at 25° C. The Biacore sensor surface was first derivatized by amine coupling with a monoclonal mouse anti-VEGFR1 antibody (REGN18) to capture VEGF mini-trap constructs. Binding studies were performed on the following human VEGF reagents: human VEGF₁₆₅. […] Dissociation of bound VEGF₁₆₅ reagent from VEGF mini-trap constructs was monitored for 60 minutes in HBS-ET running buffer. Kinetic association (ka) and dissociation (kd) rate constants were determined by fitting the real-time sensorgrams to a 1:1 binding model using Scrubber 2.0c curve fitting software. Binding dissociation equilibrium constants (KD) and dissociative half-lives (t1/2) were calculated from the kinetic rate constants as: […]

Human VEGF165 (REGN110) [6] = target: T1, Human VEGF165 (REGN110); assay: SPR (Biacore 3000), 25C, trap captured by REGN18, hVEGF165 injected
Procedure: as §1

B1: REGN3, VEGF Trap hIgG1 Fc (aflibercept) (Fc fusion)
chain: SDTGRPFVEMYSEIPEIIHMTEGRELVIPCRVTSPNITVTLKKFPLDTLIPDGKRIIWDSRKGFIISNATYKEIGLLTCEATVNGHLYKTNYLTHRQTNTIIDVVLSPSHGIELSVGEKLVLNCTARTELNVGIDFNWEYPSSKHQHKKLVNRDLKTQSGSEMKKFLSTLTIDGVTRSDQGLYTCAASSGLMTKKNSTFVRVHEK[human IgG1 Fc omitted]
notes: also called Eylea
- IC50, Inhibition of 20 pM VEGF165, VEGFR1 assay (luciferase) (Human VEGF165 (REGN110) [1]): 3.1e-11 M
- IC50, Inhibition of 20 pM VEGF121, VEGFR1 assay (luciferase) [2]: 2.15e-11 M
- IC50, VEGFR1 40 pM VEGF165 (REGN110) (luciferase) (Human VEGF165 (REGN110) [3]): 1.49e-11 M
- IC50, VEGFR1 40 pM R&D VEGF121 (luciferase) [4]: 1.12e-11 M
- 2 nM VEGF165 Bound (RU) (Human VEGF165 (REGN110) [5]): 12 RU
- Kd (Human VEGF165 (REGN110) [5]): 1 pM
- koff (Human VEGF165 (REGN110) [5]): ≤ 1e-05 s⁻¹
- kon (Human VEGF165 (REGN110) [5]): 9.98e+06 M⁻¹ s⁻¹
- t½ (Human VEGF165 (REGN110) [5]): ≥ 19.2 h
- 2.5 nM hVEGF165 Bound (RU) (Human VEGF165 (REGN110) [6]): 4.7 RU
- Kd (Human VEGF165 (REGN110) [6]): 1.8 pM
- koff (Human VEGF165 (REGN110) [6]): 1.7e-05 s⁻¹
- kon (Human VEGF165 (REGN110) [6]): 9.7e+06 M⁻¹ s⁻¹
- t½ (Human VEGF165 (REGN110) [6]): 11.3 h
